Test results: PubChem BioAssay AID1240 (Sanford-Burnham Center for Chemical Genomics, 2008)
In all, about 50,000 compounds went through this assay and about 800 (1.6%) showed an effect of 50% or more. This is one part of the list.

These compounds were tested against Bcl-2-like protein 10 (Homo sapiens) (UniProt Q9HD36) (assay: Phenotype converters, Bcl-B/TR3 peptide binding displacement, primary biochemical FP (AID 1240;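 note: 0% = Bcl-B with tracer peptide and DMSO and 100% = tracer peptide lacking Bcl-B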)). Conditions: GST-Bcl-B / FITC-TR3 peptide fluorescence polarization; stronger effect = higher value; compound at 3.75 mg/L.
Sequence of UniProt Q9HD36 (Q9HD36 whole entry, looked up): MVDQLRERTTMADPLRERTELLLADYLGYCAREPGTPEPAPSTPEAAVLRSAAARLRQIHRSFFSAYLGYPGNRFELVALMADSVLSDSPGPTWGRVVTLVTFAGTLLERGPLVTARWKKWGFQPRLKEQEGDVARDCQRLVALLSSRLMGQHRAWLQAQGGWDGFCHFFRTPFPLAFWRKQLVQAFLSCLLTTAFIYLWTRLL
In the case of `O=C(/C=C/c1ccc2c(c1)OCO2)c1ccncc1`, the displacement is reported as -5.4%. `CC(NC(=O)C12CC3CC(CC(C3)C1)C2)c1ccccc1` (stereo not drawn) gave a displacement of -4.1%. Compound `COc1ccccc1C1/C(=C(\O)c2ccccc2)C(=O)C(=O)N1c1cccc(Cl)c1` (stereo not drawn) has a displacement of 8.3%. In the case of `NS(=O)(=O)c1ccc(CNC(=O)c2ccc(-c3ccccc3)cc2)cc1`, the displacement is reported as -9.6%. With `CCOc1ccc(Br)cc1/C=N\NC(=O)c1cc(C)[nH]n1` the displacement was -2.6%. For `COc1ccc(NC(=O)CN(c2ccccc2)S(=O)(=O)c2ccccc2[N+](=O)[O-])cc1OC`, the displacement was 15.4%. `CCOC(=O)C1=C(c2ccccc2)N=c2s/c(=C\c3cccnc3)c(=O)n2C1c1ccc(OC)c(OC)c1` (stereo not drawn) showed a displacement of 12.8%. Compound `COCCN1C(=O)/C(=C/C=C/c2ccccc2)SC1=S` has a displacement of 2.4%. `Cc1ccc(-n2[nH]c(C)c(/C=N/NC(=O)c3cccc([N+](=O)[O-])c3)c2=O)cc1C` was tested, and the displacement was -7%. `O=C(CSc1nnc(-c2ccco2)n1-c1ccccc1)NCCc1ccccc1` was tested, and the displacement was 2.8%. Work on `Cc1cccc(N(CC(=O)Nc2ccccc2F)S(=O)(=O)c2ccccc2)c1` yielded a displacement of -5%. Compound `Cc1ccccc1NC(=O)c1ccc(C)c(S(=O)(=O)NCc2ccccc2)c1` has a displacement of -9.5%. `COC(=O)C1=C(C)N=c2s/c(=C/c3ccc(OC(C)=O)cc3)c(=O)n2C1c1ccc(OC(C)=O)cc1` (stereo not drawn) gave a displacement of 6.8%. In the case of `Cc1cccc(NS(=O)(=O)c2cc(C(C)(C)C)c(F)c(C(C)(C)C)c2)n1`, the displacement is reported as -3.1%. Work on `O=C(NC12CC3CC(CC(C3)C1)C2)c1ccc(Cl)c(Cl)c1` yielded a displacement of 6.9%. `O=C(c1ccc(Br)cc1)N1CCN(c2ccccn2)CC1` showed a displacement of -2.2%. For `Oc1ccccc1C=Nc1ccc2c(c1)ncn2-c1ccccc1`, the displacement was 15.5%. `O=C(Cc1ccc(Cl)cc1)Nc1ccc(Cl)cc1C(=O)O` was tested, and the displacement was 13%. `COc1cc(/C=C2\C(=O)NC(=S)N(c3ccccc3)C2=O)cc([N+](=O)[O-])c1O` gave a displacement of 15.6%. Compound `O=c1/c(=C\c2ccccc2OS(=O)(=O)c2ccc3ccccc3c2)sc2nc3ccccc3n12` has a displacement of 4.6%. Compound `O=c1c2c(nc3cc(-c4ccccc4Cl)[nH]n13)CCC2` has a displacement of -5.2%. With `CC1(C)CC(=O)C=C(NCc2cccnc2)C1` the displacement was 16.4%. For `CCOC(=O)c1cc(=O)n2[nH]c(-c3ccc(Br)cc3)cc2n1`, the displacement was 1.2%. With `Cc1ccc(-c2ccccc2)n1-c1cccnc1` the displacement was -14.3%. Compound `CC(=O)C12c3ccccc3C(c3ccccc31)C1C(=O)N(c3cccc(C(=O)O)c3)C(=O)C12` (stereo not drawn) has a displacement of 4.7%. Compound `Cc1cc(C)cc(NC(=O)/C=C/c2ccc(C)o2)c1` has a displacement of -4.6%. Compound `NC(=O)CSc1cccc2cccnc12` has a displacement of -6.7%. With `O=C(c1cc2cc(Br)ccc2oc1=O)N1CCSC1c1ccc([N+](=O)[O-])cc1` (stereo not drawn) the displacement was 12%. For `Cc1ccc(OCC(=O)Nc2cccc(Cl)c2Cl)c(Br)c1`, the displacement was 11.1%. In the case of `CC(/C=N\NC(=O)c1ccc2c(c1)OCO2)c1ccccc1` (stereo not drawn), the displacement is reported as 3.1%. Work on `Cc1ccc(N2C(=O)NC(=O)/C(=C\c3ccc(O)c(I)c3)C2=O)cc1` yielded a displacement of -9%. In the case of `Oc1ccc(Br)cc1C1N(c2ccccc2)CCN1c1ccccc1`, the displacement is reported as 8.1%. `Clc1ccc(CN2CCN(/N=C/c3ccc(Br)s3)CC2)cc1` gave a displacement of 14.6%. For `Cc1cc(NC(=O)CCN2C(=O)/C(=C\c3cccs3)SC2=S)no1`, the displacement was 90.4%. For `COc1ccc(/C=C/C(=O)c2c(C)nc3ccc(Cl)cc3c2-c2ccccc2)cc1OC`, the displacement was -1.9%. In the case of `COc1ccc(-c2ccc(/C=N/NC(=O)c3ccncc3)o2)c([N+](=O)[O-])c1`, the displacement is reported as 10.6%. `COc1cc(C2/C(=C(\O)c3ccc(F)cc3)C(=O)C(=O)N2CCCCCC(=O)O)ccc1O` (stereo not drawn) gave a displacement of -3.5%. For `COCC(=O)N/N=C/c1ccc(OC/C=C/Cl)cc1`, the displacement was -4.3%. For `Cc1cccc(OCCSc2nc3ccccc3n2CC(=O)O)c1`, the displacement was 6.2%. For `COc1cccc(C(=O)N2CCN(Cc3ccccc3[N+](=O)[O-])CC2)c1OC`, the displacement was -7.2%. In the case of `Cc1ccc(/C(O)=C/C(=O)C(=O)NCc2ccccc2)cc1`, the displacement is reported as -0.9%. `COc1ccc(NC(=O)COc2ccc(-c3ccc(C)cc3)cc2)c([N+](=O)[O-])c1` showed a displacement of 1.9%. `O=[N+]([O-])c1cc(N=Cc2ccc(Br)s2)ccc1Cl` gave a displacement of 1.3%. For `Cc1ccccc1/C=C1/SC(=Nc2ccc(F)cc2)NC1=O`, the displacement was 7.8%. With `COC(=O)C1=C(C)NC(C)=C(C(=O)OC)C1c1ccc(C)o1` the displacement was 0.5%. In the case of `O=C(CSc1nc2ccccc2s1)Nc1cc2c(cc1Br)OCCO2`, the displacement is reported as 1.9%. `O=C(/C=C/c1ccccc1Cl)c1c(-c2ccccc2)c2cc(Br)ccc2[nH]c1=O` gave a displacement of -1.5%. `O=C1C2ON(c3ccccc3)C(c3ccc(F)cc3)C2C(=O)N1c1ccc(N2CCOCC2)cc1` (stereo not drawn) gave a displacement of -0.6%. Work on `CCOc1ccc(NC(=O)CN(Cc2ccccc2)S(=O)(=O)c2ccccc2)cc1` yielded a displacement of -3.3%. In the case of `O=C1c2cccc3c(N4CCNCC4)ccc(c23)C(=O)N1c1ccc(Cl)cc1`, the displacement is reported as 101%. `O=C1c2ccccc2C(=O)c2c1cc(Nc1ccccc1)c1nsnc21` gave a displacement of -14.8%. Work on `Cc1cc([N+](=O)[O-])ccc1-c1ccc(/C=C2/C(=O)NC(=S)N(c3ccc(Cl)cc3)C2=O)o1` yielded a displacement of -3.9%. Compound `S=C(NCCOc1cccc2ccccc12)Nc1cccc2ccccc12` has a displacement of 12%.
